Laboratory results published in the supplement of paper PMC10126150.
Sequences with one replicate were seen in a single cluster, so their values are uncertain.

System: ATP
Assay: switch fluorescence ratio, 500 uM ATP over buffer (Cy3 cluster intensity, sum of 5 cycles each) (fold (ratio)); higher = stronger signal-on switching upon ATP binding; sequences stand for … in TCGTCGGCAGCGTCAGATGTGTATAAGAGACAGTTTTTTTTTTTTTTTTTTTTTTTTT…TC
Settings: aptamer strand: ATP DNA aptamer (quencher-CACCTGGGGGAGTATTGCGGAGGAAGG + anchor), 100 nM annealed; ATP concentration: 500 uM; one replicate
Procedure, shortened: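 Cy3-labelled switching-strand clusters on a modified Illumina MiSeq flow-cell were annealed to 100 nM quencher-labelled ATP aptamer, imaged in selection buffer, then imaged after 15 min with 500 uM ATP at 22 °C. Five buffer/ATP cycles ran, with NaOH stripping and re-annealing between them. The fluorescence ratio is summed target-cycle over summed buffer-cycle Cy3 intensity per cluster, averaged per switch-domain sequence. Clusters outside 100-1000 RFU were excluded.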
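Also: ATP exposure 15 min at 22 °C before imaging.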

Sequence	switch fluorescence ratio
CTAATGTCGT	1.02
CTAATGTGAT	0.98
CTAATGTTTC	0.951
CTAATTATAT	1.02
CTAATTCACG	1.07
CTAATTCCA	0.964
CTAATTTAAT	0.988
CTACAATTGT	1.03
CTACACTCAA	1.03
CTACATAAGG	1.06
CTACGCCACG	1.53
CTACGGATGG	1.06
CTACGGTAGC	1.58
CTACTGAAAA	1.17
CTACTGCGGC	1.07
CTACTGGCAT	1.05
CTAGAATATA	1
CTAGACATGT	1.01
CTAGACCGCT	1.09
CTAGAGCTGT	1.1
CTAGCATGAG	1.05
CTAGCGTAAC	1.31
CTAGCTTACG	1.01
CTAGGACAGG	1.04
CTAGGAGCGA	1.12
CTAGGCCGCT	1.01

Sequence	switch fluorescence ratio
CTAGGCCGTT	0.999
CTAGGCGAGA	1.03
CTAGGCGCTC	1.02
CTAGGTAAC	1
CTAGGTCACG	1.03
CTAGTAATCG	1.02
CTAGTATCGA	1.03
CTAGTCCGAC	1.06
CTAGTCGAGA	0.973
CTAGTCGTTA	1.04
CTAGTCTTCA	1.03
CTAGTGAATA	1.03
CTAGTGCCTA	0.959
CTAGTGGAGT	1.04
CTAGTTATTT	0.986
CTAGTTCATG	0.995
CTAGTTTATT	0.996
CTAGTTTGCC	0.992
CTATAAATAT	1.02
CTATAAGAGG	1.04
CTATAAGAGT	1.01
CTATAATGTG	0.984
CTATACCGGG	1
CTATAGATCA	0.948
CTATAGTGGG	0.975
CTATATGTCT	0.939

Sequence	switch fluorescence ratio
CTATATTAG	0.949
CTATCATACT	1.06
CTATCCGGGC	1.15
CTATCGCCAA	1.8
CTATCGTGCT	0.987
CTATCTCTGG	1.02
CTATCTTTGA	0.984
CTATGAGGAT	0.991
CTATGAGGGG	0.969
CTATGCACGG	1.07
CTATGGCATA	1.04
CTATGGGCGA	0.993
CTATGTCAGG	1.2
CTATGTCATA	1.01
CTATGTGATC	1.11
CTATTGGAAA	1
CTATTGTTA	0.972
CTATTTGTAA	1.03
CTATTTTAAT	1.01
CTCAAACCCT	1.08
CTCAAACGT	1.06
CTCAAAGCGG	1.06
CTCAAGAAAC	1.39
CTCAAGAAAT	1.04
CTCAATTGC	1.18
CTCACAACTG	0.985

Sequence	switch fluorescence ratio
CTCACAGAGG	1.02
CTCACAGCC	1.17
CTCACATAGT	1.02
CTCACGATTG	1
CTCACGTACA	1.47
CTCACTACGT	1.05
CTCAGAAGGC	1.1
CTCAGCAAGA	2.07
CTCAGGCAAG	1.61
CTCAGGTAAG	0.981
CTCAGTTGA	0.97
CTCATAGGGC	1.01
CTCATCCTGA	1.07
CTCATCTACT	1.06
CTCATTGCCA	1
CTCCAAAATT	2.07
CTCCACCAGG	2.96
CTCCACTAAT	1.87
CTCCACTGGT	1.16
CTCCAGGGGT	4.62
CTCCAGGTGC	2.93
CTCCAGTATA	1.35
CTCCATGTTC	1.25
CTCCATTTGG	1.01
CTCCCCCCG	2.71
CTCCCGAAGT	1.23

Sequence	switch fluorescence ratio
CTCCCGGGCA	1.09
CTCCCTGAAT	1.08
CTCCGGGGAG	1.17
CTCCGGGGCA	1.93
CTCCGGTGCT	3.88
CTCGACAGTC	1.04
CTCGACTTGG	1.01
CTCGAGATTG	1.01
CTCGCATAGG	2.69
CTCGGAAATG	0.984
CTCGGAATTG	1.07
CTCGGCCCTC	1.26
CTCGGCTGTG	1.05
CTCGGGCTGG	1.01
CTCGGTGATT	1
CTCGGTTACG	1.01
CTCGTATGTC	1.06
CTCGTTGGAG	0.979
CTCTAAAGGT	1.05
CTCTAAGCTT	1.09
CTCTAAGGAA	1.02
CTCTAATATT	1.24
CTCTAATCTG	1.05
CTCTAATGAT	0.999
CTCTAATGGC	1.09
CTCTAATTGT	1

Sequence	switch fluorescence ratio
CTCTAGAACC	1.02
CTCTAGAGAC	2.32
CTCTATCAG	0.983
CTCTGAATCA	1.03
CTCTGGTACA	1.1
CTCTGGTGAG	0.969
CTCTGTGCCC	1.1
CTCTTAATGT	0.986
CTCTTCAACG	1.08
CTCTTCACCT	1.13
CTCTTCGGAG	1.01
CTCTTGCTGA	1.07
CTCTTGGAAC	1
CTCTTTCCCA	1
CTCTTTCTT	1.02
CTGAAAACGA	1.13
CTGAAAAGGT	0.98
CTGAAACGGA	1.07
CTGAAAGTGG	0.966
CTGAAATGAT	1.03
CTGAACTTA	1
CTGAAGAAA	1.07
CTGAAGCCAA	5.32
CTGAAGTGGT	1.05
CTGAATTTTT	1.06
CTGACAAAG	1.01

Sequence	switch fluorescence ratio
CTGACCGTCC	1.65
CTGACGAACG	1.28
CTGACGTTAA	3.45
CTGAGAAAG	1.04
CTGAGAGATA	1.05
CTGAGATGGT	1
CTGAGGCAGA	1.75
CTGAGGGAA	1.05
CTGAGGGCAA	2.97
CTGAGGGGG	1.01
CTGAGTAGT	1.01
CTGAGTCCAA	1.33
CTGATACATG	1.05
CTGATACCCC	1.15
CTGATAGACC	0.985
CTGATCATAG	0.984
CTGATGG	1
CTGATGGGGC	1.01
CTGATGGGTC	0.952
CTGATTTTTG	1.06
CTGCAATGTG	3.01
CTGCACCGTT	0.975
CTGCACGTTA	1.22
CTGCCAGGGC	1.1
CTGCCCGCGA	3.39
CTGCCGTCG	0.988

Sequence	switch fluorescence ratio
CTGCCTGCAG	1.01
CTGCCTGCGG	0.992
CTGCCTGGGC	1.01
CTGCGAGACA	1.14
CTGCGATTG	1.07
CTGCGCCAGC	0.997
CTGCGCGCAT	1.06
CTGCGGTACT	4.04
CTGCGTATAG	1.24
CTGCGTGGGG	1.01
CTGCTAAAAG	1.01
CTGCTAGCTC	1.27
CTGCTAGGAG	0.975
CTGCTATATG	1.14
CTGCTATGAT	0.992
CTGCTCAAAG	0.969
CTGCTGTGGA	1.02
CTGCTTCGTA	1.01
CTGGAACAGA	0.972
